In PubChem BioAssay AID686979 (National Center for Advancing Translational Sciences (NCATS), 2013):
Where “and” joins values, the source holds several entries; their conditions need not be identical. Equal values may be shown once. In all, about 420,000 compounds went through this assay and about 50,000 (12%) were called active. The inconclusive results got no clear call from the source; some entries with a clear call stand among them for comparison. Calls follow the shape of the dose curve; as a rule, active = well fitted inhibition curve with a large enough effect; inconclusive = small, poorly fitted or top-dose-only effect; inactive = flat fitted curve, though single readings scatter. Where the call is inconclusive, the potency comes from a doubtful curve fit.

Test: qHTS for Inhibitors of human tyrosyl-DNA phosphodiesterase 1 (TDP1): qHTS in cells in presence of CPT; also: nearly all actives have a fitted effect of over 55% in size
Conditions: chicken DT40 Tdp1-/-;hTDP1 cells + 20 nM CPT, ATP luminescence, 48 h; activity change, negative = growth inhibition: at 46.2 µM (top of the series) unless noted
Method in brief: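 Chicken DT40 Tdp1-/- cells stably complemented with human TDP1 were seeded at 400 cells/well in medium containing 20 nM camptothecin, exposed to pin-transferred compounds, and grown at 37 °C for at least 48 hr. Viability was read as ATP luminescence.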
% is scaled to controls: 0 for no effect and ±100 for the full control effect; potency is read from the fitted curve at half-maximal effect; tags tell the direction and shape of the fitted curve.

Row | SMILES | Potency | activity change, negative = growth inhibition
1 | COC(=O)C1=CN(c2ccc(F)c(F)c2)C=C(C(=O)OC)C1c1ccc([N+](=O)[O-])cc1 | inconclusive: 25.9 µM [inhibitor, single point] | 
2 | CCOC(=O)c1oc2cc(O)ccc2c(=O)c1-c1ccc(OC)cc1 | inconclusive: 14.6 µM [inhibitor, single point] | 
3 | COc1cccc(Cn2c3ccc(NC(=O)Cc4cc(OC)ccc4OC)cc3c(=O)n2C)c1 | active: 11.6 µM | 
4 | C=CCCC(=O)N1C[C@H]2CON(C)[C@H]2C[C@H]1c1cccc(Oc2ccccc2)c1 | inconclusive: 20.6 µM [inhibitor, single point] | 
5 | CC(C)c1ccc(C(=O)N2CCOCC2c2cc(C(=O)Nc3ccccc3)no2)cc1 (stereo unspecified) | inconclusive: 18.4 µM [inhibitor, partial curve] | 
6 | CCCCC(CC)Cn1c(O)c(/C=C2\C=NN=C2c2ccccc2)sc1=S (stereo unspecified) | inconclusive: 29.1 µM [inhibitor, single point] | 
7 | O=C(CCCN1C(=O)/C(=C/c2cccs2)SC1=S)Nc1cccc(O)c1 | active: 20.6 µM | 
8 | Cc1ccc(Nc2c(-c3ccc(C)cc3)nc3cnccn23)cc1 | inconclusive: 29.1 µM [inhibitor, single point] | 
9 | CSc1cccc(NC(=S)Nc2cc(C)ccc2C)c1 |  | inactive: -28.3%
10 | CCCCC(=O)Nc1cccc(OCc2cc(=O)n3ccccc3n2)c1 |  | inactive: 0.992%
11 | COc1cc(C)cc(CN2CCC(Cc3ccccc3)CC2)c1O | inconclusive: 25.9 µM [inhibitor, single point] | 
12 | COc1cc(C(=O)Nc2cc(C)ccc2OCc2cc(=O)n3cc(C)sc3n2)cc(OC)c1OC |  | inactive: -12%
13 | CCOC(=O)C1=CCN(S(=O)(=O)c2ccccc2C)C1c1ccc(Br)cc1 (stereo unspecified) | inconclusive: 23.1 µM [inhibitor, single point] | 
14 | CCOC(=O)c1ccc(Nc2c(-c3ccc(O)cc3)nc3nc[nH]n23)cc1 | inconclusive: 23.1 µM [inhibitor, single point] | 
15 | CC(C)(C)c1ccc(NC(=O)COC(=O)C2(C)CC2(Cl)Cl)cc1 (stereo unspecified) | inconclusive: 29.1 µM [inhibitor, single point] | 
16 | CC(=O)Nc1ccccc1OCC(O)CS(=O)(=O)c1ccc(C(F)(F)F)cn1 (stereo unspecified) | inconclusive: 23.1 µM [inhibitor, single point] | 
17 | Cc1ccccc1CS(=O)(=O)Cc1ccc(C(=O)NCCc2ccccc2)o1 | inactive and inconclusive: 29.1 µM [inhibitor, single point] | 
18 | COC(=O)c1ccc(N2NC(=O)/C(=C/c3cc(OC)c(O)c(OC)c3)C2=O)cc1 |  | inactive: -26.2%
19 | Nc1ccc(/C=C2\C=Cc3ccccc32)cc1 | inconclusive: 35.5 µM [inhibitor, single point] | 
20 | COc1cccc2cc(-c3nc(-c4ccccc4)c(C)s3)c(=O)oc12 | inconclusive: 15.8 µM [inhibitor, single point] | 
21 | Cn1nc(C(C)(C)C)cc1N1C(=O)CCC1(C)C(=O)NC1CCCC1 (stereo unspecified) |  | inactive: -8.21%

Row | SMILES | Potency | activity change, negative = growth inhibition
22 | O=C(Cc1cccs1)N/N=C/C=C\c1ccco1 | inconclusive: 29.1 µM [inhibitor, single point] | 
23 | Cc1coc(C)c1C(=O)CC1(O)C(=O)N(CCc2ccccc2)c2ccccc21 (stereo unspecified) | inconclusive: 29.1 µM [inhibitor, single point] | 
24 | CCOC(=O)Cc1cc(=O)n2[nH]cc(-c3ccc(Cl)cc3)c2n1 | inconclusive: 29.1 µM [inhibitor, single point] | 
25 | N#C/C(=C\c1ccc(-c2cccc([N+](=O)[O-])c2)o1)C(=O)NCCN1CCOCC1 | inconclusive: 14.6 µM [inhibitor, single point] | 
26 | COc1ccc(/C=C2\NC(=S)N(CC3CCCO3)C2=O)c(OC)c1C (stereo unspecified) | inconclusive: 18.4 µM [inhibitor, single point] | 
27 | Cc1ccc(NC(=O)CN2CCN(c3ccccn3)CC2)cc1S(=O)(=O)N(C)C | inconclusive: 0.651 µM [inhibitor, partial curve, poor fit] | 
28 | COc1ccc(C(=O)NCC(c2ccco2)N2CCc3ccccc32)cc1 (stereo unspecified) | active: 3.66 µM | 
29 | CCOc1ccc(Cl)cc1CSc1n[nH]c(CC)n1 | inconclusive: 18.4 µM [inhibitor, single point] | 
30 | CCOC(=O)c1ccc(NC(=O)c2oc3ccc4c(c3c2C)C(=O)CC(C)(CC)O4)cc1 (stereo unspecified) | inconclusive: 23.1 µM [inhibitor, single point] | 
31 | O=C(NCCO)c1cc2c([nH]c3ccccc32)c(-c2ccccc2)n1 | inconclusive: 29.1 µM [inhibitor, single point] | 
32 | CCOC(=O)c1ccc2c(c1)nc(SCC(=O)NC(C)C)n2CC |  | inconclusive: -9.54% [inhibitor]
33 | Cn1c(=O)c2c(SCC(=O)NCc3ccco3)nc(-c3ccccc3Cl)nc2n(C)c1=O | inconclusive: 20.6 µM [inhibitor, partial curve] and inconclusive: 29.1 µM [inhibitor, single point] | 
34 | CCOC(=O)C1CCCN(c2ncnc3c2cnn3-c2ccc(C)c(Cl)c2)C1 (stereo unspecified) | inconclusive: 9.2 µM [inhibitor, partial curve, poor fit] | 
35 | O=C(Cn1nc(Br)nc1Br)c1ccccc1 |  | inactive: 0.808%
36 | CCCCn1c(N)c(N(C(=O)CSc2nncn2-c2ccccc2C)C2CCCC2)c(=O)[nH]c1=O |  | inactive: 1.67%
37 | O=c1[nH]c2cc3c(cc2cc1CN(CCc1ccccc1)C(=S)NCCCN1CCOCC1)OCCO3 | inconclusive: 23.1 µM [inhibitor, single point] | 
38 | CCOc1ccc(NC(=O)C(C)Sc2nnc3cc(C)c4ccccc4n23)cc1 (stereo unspecified) | inconclusive: 13 µM [inhibitor, partial curve] | 
39 | O=C(CCCCCn1c(SCC(=O)c2ccccc2)nc2ccccc2c1=O)NCc1ccco1 | active: 8.2 µM | 
40 | Cc1nc2c(-c3ccccc3)c(C)nn2c(C)c1CCC(=O)NCc1cccc(Cl)c1 |  | inactive: -10.5%
41 | O=C(CCCNC(=O)c1ccc(Cl)cc1)Nc1ccc(S(=O)(=O)Nc2ncccn2)cc1 | inconclusive: 29.1 µM [inhibitor, single point] | 
